This note sets out measurements from article PMC4336329 (PLoS ONE, 2015).

In all, about 310,000 compounds went through this assay and about 14,000 (4.5%) showed an effect of 50% or more. Effects have a minus sign here. The list shows a part of the results.
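Note: peak tail current of the secondary pulse compared with the same well before compound.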

human ether-à-go-go-related gene (hERG) potassium channel, sequence (Q12809 whole entry, looked up): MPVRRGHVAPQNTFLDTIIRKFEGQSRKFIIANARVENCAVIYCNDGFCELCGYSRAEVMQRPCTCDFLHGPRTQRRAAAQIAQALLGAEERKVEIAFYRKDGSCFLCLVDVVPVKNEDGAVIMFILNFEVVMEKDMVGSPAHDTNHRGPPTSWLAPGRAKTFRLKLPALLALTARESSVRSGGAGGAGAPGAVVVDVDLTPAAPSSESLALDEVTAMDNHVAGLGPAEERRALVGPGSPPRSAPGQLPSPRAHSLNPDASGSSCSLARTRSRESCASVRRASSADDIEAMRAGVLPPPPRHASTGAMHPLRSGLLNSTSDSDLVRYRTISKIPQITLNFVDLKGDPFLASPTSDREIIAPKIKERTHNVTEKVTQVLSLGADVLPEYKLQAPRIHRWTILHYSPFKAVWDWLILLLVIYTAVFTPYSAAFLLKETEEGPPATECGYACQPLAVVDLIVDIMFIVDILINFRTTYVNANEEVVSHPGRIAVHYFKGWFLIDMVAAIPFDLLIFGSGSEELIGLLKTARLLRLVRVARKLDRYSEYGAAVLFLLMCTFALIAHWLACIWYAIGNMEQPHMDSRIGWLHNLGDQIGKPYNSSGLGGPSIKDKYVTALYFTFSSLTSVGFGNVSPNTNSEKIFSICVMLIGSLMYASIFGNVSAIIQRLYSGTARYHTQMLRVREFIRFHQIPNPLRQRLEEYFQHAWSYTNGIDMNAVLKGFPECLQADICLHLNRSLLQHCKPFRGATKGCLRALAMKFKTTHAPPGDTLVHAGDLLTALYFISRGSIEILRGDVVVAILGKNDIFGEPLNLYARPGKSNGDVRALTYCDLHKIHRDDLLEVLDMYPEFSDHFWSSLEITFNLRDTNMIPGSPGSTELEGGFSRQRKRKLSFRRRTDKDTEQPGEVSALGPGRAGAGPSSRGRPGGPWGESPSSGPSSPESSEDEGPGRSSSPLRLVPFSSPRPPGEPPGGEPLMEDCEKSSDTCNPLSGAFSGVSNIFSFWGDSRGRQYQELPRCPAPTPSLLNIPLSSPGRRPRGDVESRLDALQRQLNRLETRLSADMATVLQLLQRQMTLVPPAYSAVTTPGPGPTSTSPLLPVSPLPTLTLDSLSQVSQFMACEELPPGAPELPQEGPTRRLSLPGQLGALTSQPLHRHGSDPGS

This experiment concerns the target human ether-à-go-go-related gene (hERG) potassium channel (human, UniProt Q12809). Description: primary screen, population patch clamp on CHO cells stably expressing hERG.
Consider `O=S(=O)(NCc1c(Cl)cccc1Oc1ccccc1)c1ccccc1`, for which the “hERG current change (%, negative = inhibition) at 10uM” value was found to be 11.9%. In the case of `CCN(CC)Cc1c(O)ccc2c1O/C(=C\C=C\c1ccccc1)C2=O` it was -18.8%. As to `COc1ccc(-c2[nH]ncc2CN2CCN(C(=O)c3ccco3)CC2)cc1F`, the “hERG current change (%, negative = inhibition) at 10uM” value is reported as -6.81%. In the case of `CCOC(=O)c1ccc(P(=O)(c2ccccc2)c2ccccc2)cc1` it was -18.2%; in that of `O=C(COC(=O)c1cc([N+](=O)[O-])ccc1NCCO)NCc1cccs1`, -19.9%; in that of `Cc1cccc(CSc2ccc(-c3ccco3)nn2)c1`, -17.3%. In the case of `COc1cccc(NC(=S)NCc2cccnc2)c1` it was 8.76%.

With `CC(=O)N(Cc1ccco1)C1(C(=O)NC2CCCC2)CCCCC1`, the “hERG current change (%, negative = inhibition) at 10uM” value amounted to 21.7%. Turning to `O=C1CC(N2CCN(c3ccc(S(=O)(=O)N4CCOCC4)cc3)CC2)C(=O)N1Cc1ccccc1` (centres unmarked), the “hERG current change (%, negative = inhibition) at 10uM” value is on record as -11.4%.

Consider `C/C(=N\NC(=O)c1cc(C2CC2)nc2ccccc12)c1ccc(C)s1`, for which the “hERG current change (%, negative = inhibition) at 10uM” value was 18.3%. The result for `COc1cccc(CNc2ncn[nH]2)c1OCc1ccc(F)cc1` reads 8.3%. In the case of `COc1ccc(C2(CNC(=O)c3cc([N+](=O)[O-])cc([N+](=O)[O-])c3)CCCC2)cc1OC` it was -6.52%. Take `O=C(N/C(=C/c1ccc(Br)cc1)C(=O)N1CCOCC1)c1ccc(Br)o1`: the “hERG current change (%, negative = inhibition) at 10uM” value is listed as -70.2%. Take `CCc1cccc(OCC(=O)Nc2c[nH]c(=O)[nH]c2=O)c1`: the “hERG current change (%, negative = inhibition) at 10uM” value came to 23%. The result for `CCCn1nnnc1NC(=O)COc1ccc(Br)cc1` reads 5.06%. The result for `Cc1ccccc1S(=O)(=O)Cc1ccc(C(=O)NCCCN2CCN(C)CC2)o1` reads -1.6%; that for `COC(=O)c1cn(-c2ccccc2)nc1-c1ccncc1`, -2.62%. In the case of `Cc1cccc(NC(=O)CNC(=O)c2ccc3nc[nH]c3c2)c1C` it was 4.12%. As to `CCOC(=O)C1CCN(C(=O)COc2ccc(Cl)cc2C)CC1`, the “hERG current change (%, negative = inhibition) at 10uM” value is given as -46.1%. In the case of `CCOc1ccc(-c2nnc(SCC(=O)N3CCOCC3)o2)cc1` it was 2.8%; in that of `O=C1CCc2cc(S(=O)(=O)Nc3ccccc3)cc3c2N1CC3`, 4.53%; in that of `O=C1NC(=O)N(Cc2ccc(F)cc2)C(=O)/C1=C\c1ccc([N+](=O)[O-])s1`, 18.9%. The result for `CN/C(=C\[N+](=O)[O-])NCCSCc1csc(CN(C)C)n1` reads 15.7%. `Cc1cc(C)nc(NS(=O)(=O)c2ccc(N)cc2)n1`: the “hERG current change (%, negative = inhibition) at 10uM” value is recorded as 12%. In the case of `COc1ccc(/C=C(/C#N)S(=O)(=O)c2ccc(C)cc2)cc1` it was 6.64%. In the case of `COc1ccc(-n2c(C)cc(C(=O)Cn3c(NCCO)nc4ccccc43)c2C)cc1` it was -21.7%; in that of `O=C(CN(Cc1cccs1)C(=O)CNC(=O)c1ccco1)NC1CCCCC1`, -10.1%; in that of `O=C(NCc1cccnc1)c1noc2c1CCCCC2`, 9.21%. The result for `CC1CCC(C(C)C)C(OC(=O)CSc2n[nH]c(=O)[nH]c2=O)C1` (centres unmarked) reads -19.9%; that for `COC(=O)c1ccc(/C=N/NC(=S)NC(C)C)cc1`, 3.93%; that for `COc1ccc(S(=O)(=O)N2CCC(C(=O)NCc3ccco3)CC2)cc1C`, 8.26%. `O=C(O)CSc1nnc(-c2ccco2)o1`: the “hERG current change (%, negative = inhibition) at 10uM” value came out at 8.89%. As for `O=C(NCc1ccccc1)C1=C[C@@H](c2ccc3c(c2)OCO3)C[C@@H](OCCCCO)O1`, the “hERG current change (%, negative = inhibition) at 10uM” value was -42.2%.

Regarding `Cc1nc(Nc2ccccc2)sc1C`, the “hERG current change (%, negative = inhibition) at 10uM” value is on record as -6.02%. The result for `Cc1ccc(C(=O)Nc2ncc3c(n2)CC(c2ccco2)CC3=O)cc1` (centres unmarked) reads 14.9%; that for `COc1ccc(-c2cn(Cc3ccc(C)cc3)nn2)cc1`, 7.67%; that for `COc1ccc(C(=O)OCC(=O)Nc2ccc(N3CCOCC3)cc2)cc1OC`, 1.59%. The result for `O=C(NCC1CCCO1)c1ccc(Cl)c(F)c1F` (centres unmarked) reads 14.6%; that for `O=C(CCC(=O)c1cccs1)OCC(=O)c1ccc(Cl)s1`, 6.99%. The result for `CC(C)NC(=S)N/N=C/C1=CCC2CC1C2(C)C` (centres unmarked) reads 3.52%; that for `NC(=O)Cn1c(=O)n(CCC(=O)NCCSCc2ccccc2)c(=O)c2ccccc21`, 13.6%. Regarding `O=C(COC(=O)Cc1ccccc1)Nc1ncc(Cl)cc1Cl`, the “hERG current change (%, negative = inhibition) at 10uM” value came out at 7.72%. For `CCCC[n+]1c(-c2ccc(Cl)cc2Cl)csc1Nc1ccccc1.[Cl-]`, the “hERG current change (%, negative = inhibition) at 10uM” value was -6.7%.

Take `CCOC(=O)C(C)c1nn(C)c(=O)c2ccccc12` (centres unmarked): the “hERG current change (%, negative = inhibition) at 10uM” value came out at 9.24%.
